Test results as given in article PMC4336329 (PLoS ONE, 2015).
About 14,000 (4.5%) of roughly 310,000 compounds showed an effect of 50% or more. Effects have a minus sign here. Some of the results follow.

target: human ether-à-go-go-related gene (hERG) potassium channel (human, UniProt Q12809); assay: primary screen, population patch clamp on CHO cells stably expressing hERG
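Note: peak tail current of the secondary pulse compared with the same well before compound.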

human ether-à-go-go-related gene (hERG) potassium channel, sequence (Q12809 whole entry, looked up): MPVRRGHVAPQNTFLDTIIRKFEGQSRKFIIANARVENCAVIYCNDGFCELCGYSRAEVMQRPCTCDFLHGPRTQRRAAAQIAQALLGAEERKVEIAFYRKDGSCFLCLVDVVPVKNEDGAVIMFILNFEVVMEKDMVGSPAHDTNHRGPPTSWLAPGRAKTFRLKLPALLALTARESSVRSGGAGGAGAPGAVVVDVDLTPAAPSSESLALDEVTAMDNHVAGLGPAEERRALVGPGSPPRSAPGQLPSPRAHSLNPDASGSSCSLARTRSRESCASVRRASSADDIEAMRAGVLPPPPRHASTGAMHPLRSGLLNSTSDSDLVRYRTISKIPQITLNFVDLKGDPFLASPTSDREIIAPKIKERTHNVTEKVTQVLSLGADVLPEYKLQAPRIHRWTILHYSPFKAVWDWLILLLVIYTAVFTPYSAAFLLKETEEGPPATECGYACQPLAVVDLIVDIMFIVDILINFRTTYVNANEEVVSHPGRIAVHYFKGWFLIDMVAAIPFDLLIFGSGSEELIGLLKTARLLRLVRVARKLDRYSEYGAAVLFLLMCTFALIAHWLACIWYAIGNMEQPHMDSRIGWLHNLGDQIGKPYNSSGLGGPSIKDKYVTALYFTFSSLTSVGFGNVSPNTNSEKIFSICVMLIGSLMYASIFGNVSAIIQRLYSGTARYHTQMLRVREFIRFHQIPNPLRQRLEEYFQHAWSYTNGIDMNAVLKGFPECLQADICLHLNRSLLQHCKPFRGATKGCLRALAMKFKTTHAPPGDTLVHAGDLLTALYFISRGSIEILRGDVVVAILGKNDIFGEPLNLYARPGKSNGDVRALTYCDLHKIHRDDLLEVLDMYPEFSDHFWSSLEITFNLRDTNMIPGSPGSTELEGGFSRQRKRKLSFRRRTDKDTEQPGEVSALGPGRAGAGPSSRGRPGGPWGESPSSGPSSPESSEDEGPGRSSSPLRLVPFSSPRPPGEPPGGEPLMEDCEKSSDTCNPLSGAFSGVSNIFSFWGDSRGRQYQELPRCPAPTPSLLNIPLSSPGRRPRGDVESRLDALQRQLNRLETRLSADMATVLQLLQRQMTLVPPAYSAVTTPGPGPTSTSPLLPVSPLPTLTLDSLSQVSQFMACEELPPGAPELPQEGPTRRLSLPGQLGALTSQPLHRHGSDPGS

Row | SMILES | hERG current change (%, negative = inhibition) at 10uM [%]
1 | C[C@H]1C(=O)O[C@@H]2CCN3CC=C(COC(=O)[C@](C)(O)[C@]1(C)O)[C@H]23 | -7
2 | O=C(COc1cccc(OC(F)F)c1)Nc1ccc(SC(F)F)cc1 | -29.4
3 | COc1ccc(-c2csc(N3C(=O)C4C5c6ccccc6C(c6ccccc65)[C@@H]4C3=O)n2)cc1 (some centres unmarked) | 19.4
4 | Cc1ccc(OCCCC(=O)Nc2nnc(C3CCCO3)s2)c(C)c1 (centres unmarked) | 20.6
5 | Cc1ccc(-c2nc3ccccc3c(C(=O)NCc3cccs3)c2C)cc1 | -5.33
6 | OC(c1cc(-c2ccc(Cl)cc2)nc2ccccc12)C1CCCCN1 (centres unmarked) | -52.6
7 | Cc1cc(C)n2nc(SCc3cccc(F)c3)nc2n1 | -3.78
8 | COc1cc(C)nc(NC(=O)NC(=O)c2ccc(C(F)(F)F)cc2)n1 | 16
9 | Cc1ncc(CO)c2c1OC(C)(C)OC2 | 13.6
10 | O=C(O)/C=C/C(=O)Nc1ccc(Cl)cc1C(=O)c1ccccc1 | -7.6
11 | Clc1ccc(-c2nnc3c4ccccc4nc(N4CCOCC4)n23)cc1Cl | -64.7
12 | CCN1CCN(C(=O)CCN2C(=O)c3ccccc3C2=O)CC1 | -1.77
13 | Cc1ccc2c(c1)N(CCC(=O)NC1CCCCC1)C(=O)CO2 | 25.3
14 | Cc1nc(C)n(C(C)CNS(=O)(=O)c2ccc(C)c(C)c2)n1 (centres unmarked) | 17.5
15 | Cc1cc(OCC(O)CN2C(C)CCCC2C)ccc1C(C)C (centres unmarked) | -32.4
16 | COc1ccc(NS(=O)(=O)c2ccc(-n3nnc4ccccc43)c([N+](=O)[O-])c2)cc1 | -0.892
17 | S=C(NCc1ccco1)NCC1CCCO1 (centres unmarked) | 5.04
18 | CC(NS(=O)(=O)c1cccc(C(=O)NCc2ccncc2)c1)c1ccccc1 (centres unmarked) | -5.36
19 | COc1ccc(CNCCC2(C(C)C)CCOC(C)(C)C2)cc1 (centres unmarked) | -11.4

Row | SMILES | hERG current change (%, negative = inhibition) at 10uM [%]
20 | CC1=NCCN1CCNC(=O)Nc1cc(C)cc(C)c1 | 15.6
21 | CC1CCN(C2=NC(=O)/C(=C/c3ccccc3F)S2)CC1 | -25.2
22 | CCOC(=O)CC(NC(=O)c1ccco1)c1ccccc1Cl (centres unmarked) | -4.55
23 | Cc1ccsc1C(=O)NNC(=S)NCC(C)C | 5.42
24 | COc1cc2c(cc1OC)C(C)N(CC(=O)Nc1ccc(S(=O)(=O)N3CCCC3)cc1)CC2 (centres unmarked) | -14.1
25 | Cc1ncc(CO)c2c1Oc1nc(-c3ccccc3)nc(SCC(=O)N3CCOCC3)c1C2 | 9.56
26 | Cc1ccc(C(=O)C(C)Oc2ccc3ccc(=O)oc3c2)cc1 (centres unmarked) | -6.75
27 | Cc1noc(C)c1C(=O)Nc1nc2ccc(F)cc2s1 | -9
28 | CCc1nnc(NC(=O)CSc2nnc(C)n2CC2CCCO2)s1 (centres unmarked) | 5.75
29 | COCCNC(=O)CSc1nc2nn(-c3ccccc3)c(=O)c-2c2n1CCCCC2 | 23.2
30 | COc1ccc(CNC(=O)[C@H](NC(=O)C2CCN(C(=O)[C@@H](N)CCSC)CC2)C(C)C)cc1 | 2.54
31 | Cc1ccc([N+](=O)[O-])cc1N1C(=O)CS/C1=N\NC(=O)c1cccnc1 | 25.6
32 | CCCCNC(=O)C1CC(=O)N(CCc2ccccc2)C1 (centres unmarked) | 13.1
33 | CC(=O)C(C(c1ccccc1)c1c[nH]c2ccccc12)[N+](=O)[O-] (centres unmarked) | 12.7
34 | O=C(c1ccc(-n2cncn2)c([N+](=O)[O-])c1)N1CCN(S(=O)(=O)c2ccc(F)c(F)c2)CC1 | -72.7
35 | CCOc1ccccc1N(CC(=O)N1CCC(C(N)=O)CC1)S(=O)(=O)c1ccc(SC)cc1 | 3.7
36 | COc1ccc(N(CC(=O)NCCSC(C)(C)C)S(C)(=O)=O)c(OC)c1 | 5.64
37 | COc1ccc(S(=O)(=O)n2oc(=O)cc2-c2ccccc2)cc1 | -2.17
38 | COc1cc(CNC(C)(C)CO)cc(Br)c1OCc1ccc(Cl)cc1.Cl | -45.7

Row | SMILES | hERG current change (%, negative = inhibition) at 10uM [%]
39 | O=C(CCc1nc2ccccc2c(=O)[nH]1)OCC(=O)N1CCN(S(=O)(=O)c2ccccc2)CC1 | 0.376
40 | COc1ccc(CCNC(=O)c2cc(COc3c(F)cccc3F)on2)c(OC)c1 | 1.77
41 | CC1=NN(c2cccc(F)c2)C(=O)/C1=C/c1ccc(N(C)C)cc1 | 6.38
42 | COc1ccc(-c2cc(-c3ccc(C)cc3)n[nH]2)c(O)c1 | 20.2
43 | O=C(Nc1ccccc1)C1=C[C@@H](c2ccc(Br)cc2)C[C@@H](OCCCCO)O1 | 1.99
44 | COc1cc(-c2nnn(CC#N)n2)ccc1OCc1ccccc1 | -5.98
45 | CCOC(=O)CC(=O)CSc1nc(CC)c(C)cc1C#N | 16.4
46 | CN1CCN(C(=O)Nc2cccc3ccccc23)CC1 | 12.7
47 | CC(=O)O[C@H]1C(=O)[C@@]2(C)C([C@H](OC(=O)c3ccccc3)[C@]3(O)C[C@H](O)C(C)=C1C3(C)C)[C@]1(OC(C)=O)CO[C@@H]1C[C@H]2O (some centres unmarked) | 1.75
48 | Cn1c(=O)oc2cc(S(=O)(=O)NCc3ccco3)ccc21 | -5.61
49 | Cc1occc1C(=O)N/N=C/c1ccc(N(C)C)cc1 | 5.49
50 | O=c1oc2ccccc2n1CSc1nc2ccccc2s1 | -24.6
51 | Cc1ccc2c(c1)nnn2C1CCN(C(=O)c2ccccc2F)CC1 | -18.1
52 | CC1c2cccn2CCN1S(=O)(=O)c1ccc(F)cc1 (centres unmarked) | -52.3
53 | Cc1ccccc1-c1noc(-c2ccc(Cl)cc2)n1 | 25.1
54 | Cc1c(Cl)cccc1-n1ccnc1SCC(=O)O | 18.2
55 | O=C(CN1CCC(n2nnc3cc(F)ccc32)CC1)NC1CC1 | -4.99
56 | COc1ccc(C)cc1-n1c(SCC(=O)NCC2CCCO2)nc2c([nH]c3ccccc32)c1=O (centres unmarked) | -15.3
